Test results from the RNAGym collection of RNA variant scans (doi:10.1073/pnas.2313332121).
Variants at the floor of the assay are shown more often than the library holds them.

B1: TPR 5TU (parent)
chain: GGAUCUUCUCGAUCUAACAAAAAAGACAAAUCUGCCACAAAGCUUGAGAGCAUCUUCGGAUGCAGAGGCGGCAGCCUUCGGUGGCGCGAUAGCGCCAACGUUCUCAACUAUGACACGCAAAACGCGUGCUCCGUUGAAUGGAGUUUAUCAUG

Variants of: B1
Experiment: polymerase ribozyme fitness, log enrichment relative to wild type (log ratio); higher = more active; in vitro selection for triplet polymerase activity
How it was run: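 Mutant libraries for each subunit of a heterodimeric triplet polymerase ribozyme were made by PCR and then transcribed. Each library underwent one round of in vitro selection in triplicate: annealing with a biotinylated primer, the partner subunit and triplets, frozen incubation at −7 °C, gel excision of extended constructs, streptavidin-bead capture and RT-PCR. Input and output libraries were Illumina-sequenced, and only genotypes with ≥10 input reads and ≥1 read per output were kept. Fitness is the logarithm, base 2, of genotype enrichment over wild-type enrichment, computed from inverse-variance-weighted replicate averages.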

Polymerase ribozyme fitness (log ratio), ≤ -4.2:
GGAUCUUCUCGAUUUAACAUAAAAGACAAAUCUGCCACAAAGCUUGAGAGCAUCUUCGGAUGCAGAGGCGGCAGCCUUCGAUGGCGCCAUAGCGCCAACGUUCUCAACUAUGACACGCAAAACGCGUGCUCCGUUGAAUGGAGUUUAUCAUG
GGAUCUUCUCGAUUUAACAACAAAGGCAAAUCUGCCACAAAGCUUGAGAGCAUCUACGGAUGCAGAGGCGGCAGCCUUCGGUGGCGUGAUAGCGCCAACGUACUCAACUAUGACACGCAAAACGCGUGCUCCGUUGAAUGGAGUUUAUCAUG
GGAUCUUCUCGAUUUAACAAAACAGACAAAUCUGCCACAAAGCUUGAGAGCAUCUUCGGAUGCAGAGGCGGCAGCCUUCGGUGGUGCGAUAGCGCCAACGUUCUCAGCUAUGACACGCAAAACGCGUGCACCGUUGAAUGGAGUUUAUCAUG
GGAUCUUCUCGAUUUAACAAAAACGACAAAUCUGCCACAAAGCUUGAGAGCAUCUUCGGAUGCAGAGGCGGCAGCCUUAGGUGGUGCGAUAGCGCCAACGUUCUCAACUAUGACACGCAAAACGCGUGCUCCGUUGAAUGGACUUUAUCAUG
GGAUCUUCUCGAUUUAACAAAAAGGACAAAUCUGCCACAAAGCUUGAGAGAAUCAUCGGAUGCAGAGGCGGCAGCCUUCGGUGGUACGAUAGCGCCAACGUUCUCAACUAUGACACGGAAAACGCGUGCUCCGUUGAAUGAAGUUUAUCAUG
GGAUCUUCUCGAUUUAACAAAAAAGUCAAAUCUGCCACCAAGCUUGAGAGCAUCUUAGGAUGAAGAGGCGGCAGCCUUCGGUGGCGCGAUAGCGCCAACGUUCUCAACUAUGACAUGCAAAACGCGUGCUCCGUUGAAUGGAGCUUAUCAUG
GGAUCUUCUCGAUUUAACAAAAAAGUCAAAUCUGCCACAAAGCUUGAGAGCAUCUCCGGAUGCAGAGGCGGCAGCCUUCGGUGGUGCGAUAGCGCCAACGUUCUCAAAUAUGACACGCAAAACGCGUGCUCCGUUGAAUGGAGUUUAUCAUG
GGAUCUUCUCGAUUUAACAAAAAAGACCAAUCUGCCACAAAGCUUGACAGCAUCUUCGGAUGCAGAGGCGCCAGCCUUCGGUGGCUCGAUAGCGCCAACGUUCUCAACUAUGACACGCAAAACGCGUGCUCCGUUGAAUGGAGUUUAUCAUG
GGAUCUUCUCGAUUUAACAAAAAAGACAUAUCUGCCACAAAGCUUGAGAGCAUCUUCGGAUGCAGAGGCGGCAGCCUUCGGUGUCGCGAUCGCGCCAACGUUCUCAACUAUGACACGCAAAACGCGUGCUCCGUUGAAUGGAGUUUAUCAUG
GGAUCUUCUCGAUUUAACAAAAAAGACAAAUCUGCCUCAAACCUUGAGAGCAUCUUGGGAUGCAGGGGCGGCAGCCUUCGGUGGGGCGAUAGCGACAACGUUCUCAAAUAUGACACGCAAAACGCGUGCUCCGUUGAAUGAAGUUUAUCAUG
GGAUCUUCUCGAUUUAACAAAAAAGACAAAUCUGCCACUAAGCUUGCGAGCAUCUUCGGAUGCAGAGGCGGCAGCCUUCGGUGGCGCGAUUGCGUCAACGUUAGCAACUAUGACUCGCAAAACGCGUGCUCCGUUGAAUGGAGUUUAUCAUG
GGAUCUUCUCGAUUUAACAAAAAAGACAAAUCUGCCACAUAGCUUGAGAGCAUCUUCGGAAGCAGAGGCGGCAGCCUUCGGUGACGCGGUAGCGCCAACGUUCUCAACUAUGACACGCAAAACGCGUGCUCCGUUGAAUGGAGUUUAUCAUG
GGAUCUUCUCGAUUUAACAAAAAAGACAAAUCUGCCACAACGCUUGAGAGCAUCUUCGGAUGCAGAGGCGGCAGCCUUCGGUGGCGCAAUAACGCCAACGUUCUCAACAAUGACACGCAAAACGCGUGCUACGUCAAAUGGAGUUUAUCAUG
GGAUCUUCUCGAUUUAACAAAAAAGACAAAUCUGCCACAAGGCUUGAGCGCAUCGUCGGAUGCAGAGGCGGCAGCCUUCGGUGGCGCCAUAGCGCCAACGUUCUCAACUAUGACACGCGAAACGCAUGCUCCGUUGAAUGGAGUUUAUCAUG
GGAUCUUCUCGAUUUAACAAAAAAGAUCAAUCUGCAACAAAGCUUGAGAGCAUCUUCGGAUGCAGAGGCGGCAGCCUUCGGUGGGGCGAUAGCGCCAACGUUCUCAACUAUGACACGCAAAACGCGUGCUCCGUUGAAUGGAGUUUAUCAUG
GGAUCUUCUCGAUUUAACAAAAAAGACAAAUGUGCCACAAAGCUUGAGAGCAUCUUCGGAUGCAGAGGCGGCAGCCUUCGGUGGCGCGAUAGUGUCAACGUUCUCAACUAUGACACGCCAAACGCGUGCUCCGUUGAAUGGAAUUUAUCAUG
GGAUCUUCUCGAUUUAACAAAAAAGACAAAUCUGUCACAAAACUUGAAAGCAUCUUCGGAUGCAGAGGUGGCAGUUUUCGGUGGUGCGAUAGCGCCAACGUUCUCAACUUUGACACGCAAAACGCGUGCUCCGGUGAAUGCAGUUUAUCCUG
GGAUCUUCUCGAUUUAACAAAAAAGACAAAUCUGCCACAAAGUUUGAGAGGAUCUUCGGAUGCAGAGGCGGCAGCCUUCGGUGGCGCGAUAGCGCCAACGUUCUCAACUAUGACACGCAAAACGCGUGCUCCGUUGAAUGGAAUUUAUCAUG
GGAUCUUCUCGAUUUAACAAAAAAGACAAAUCUGCCACAAAGCUUGAGAGAAUCUUCGGAUGCAGAGGCGGCAGCCUUCGGUGUCGCGAUAGCGCCAACGUUCUCAACUAUGACACGCAAAACGCGUGCUCCGAUGAAUGGAGUUGAUCAUG
